Reference: PubChem BioAssay (NCATS)
Inconclusive means that the source gave no clear call. Such entries were picked first, then a sample of the others. Potencies beside an inconclusive call are fits to weak or partial responses and may not hold up. The source made the active and inactive calls. The call rests on the fitted dose curve; in most records, active means well fitted cell-killing curve with a large enough effect; inconclusive means small, poorly fitted or top-dose-only effect, or effect the other way; inactive means no such curve, though single readings can be large or run the other way.

Assay: Viability qHTS for spleen associated tyrosine kinase inhibitor (SYKi) naive MV4-11 cells (AID 1963823); further: nearly all actives have a fitted effect of over 40% in size
Conditions: MV4-11 AML viability, CellTiter-Glo luminescence, 72 h; series mostly up to 45 µM
How it was run: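 Read-out: CellTiter-Glo luminescence. Exposure: 72 hr, 37 C, 5% CO2, 95% humidity. Cells: MV4-11 without SYK inhibitor history, 500/well, qHTS format.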
Potency means the concentration at half of the fitted maximal effect; tags describe the fitted curve by direction and shape.

SMILES | Potency
CC(C)c1ccc(NC(=O)C(c2ccccc2)N(C)C(=O)Cc2c[nH]c3ccccc23)cc1 (stereo not drawn) | inconclusive: 20.6 µM [cytotoxic, partial curve]
C=CC(=O)N1CCC[C@@H](n2nc(-c3cccc(C(=O)Nc4ccc(C(C)C)c(C)c4)c3)c3c(N)ncnc32)C1 | active: 1.46 µM
CCOC(=O)N1CCC(NCCNC(=O)c2ccccc2C)CC1 | inactive
CN1CC[C@@H](NC(=O)Nc2ccc(C#N)cc2)C[C@@H]1c1nc2ccccc2[nH]1 | inconclusive: 23.5 µM [cytotoxic, single point]
CCOc1ccc2nc(SCCN3CCOCC3)[nH]c2c1 | inconclusive: 32.6 µM [cytotoxic, partial curve, poor fit]
CN[C@H](CNC(=O)N1CCC[C@@H]([C@@H](OCCNC(=O)OC)c2cccc(Cl)c2)C1)C[C@H]1CCCOC1 | inactive
C=C1[C@H]2CC[C@H](C(=O)O)[C@@]23CC[C@H](C3)C1(C)C | inactive
CCCN1CCN(c2ccc(C(=O)NC3(C(=O)NCC#N)CCCCC3)cc2)CC1 | inactive
CC1CCC2C(C)(C)[C@H](O)CC[C@]2(C)C12Cc1c(O)cc3c(c1O2)CN(C(CCC(=O)O)C(=O)O)C3=O (stereo partly drawn) | inactive
C[C@H](C(=O)NC1CCCC1)N(C(=O)Cn1nnc(-c2ccc3c(c2)OCO3)n1)C1CCCCC1 | inconclusive: 5.8 µM [cytotoxic, single point]
CC1=CC(=O)CC(C)(C)C1/C=C/C(C)O[C@@H]1O[C@H](CO)[C@@H](O)[C@H](O)[C@H]1O[C@@H]1OC[C@](O)(CO)[C@H]1O (stereo partly drawn) | inactive
O=C1CCCC2=C1C(c1ccncc1Br)N=C(Nc1nc3ccccc3o1)N2 (stereo not drawn) | inconclusive: 10.3 µM [cytotoxic, partial curve]
Cc1ncc([N+](=O)[O-])n1C | inconclusive: 0.0017 µM [rising, full curve, poor fit]
CCC(C)/C=C(C)/C=C/C1=CC2=C(Cl)C(=O)C(C)(OC(C)=O)C(=O)C2(O)C(OC)O1 (stereo not drawn) | active: 11.2 µM
COc1cc(-c2ccc(=O)[nH]n2)ccc1OC(F)F | inactive
COc1c(O)cc2c(c1O)C(=O)O[C@H](C)[C@H]2O | inactive
Cc1ccc(NS(=O)(=O)c2cc3c(cc2N(C)C)CCC(=O)N3)cc1C | inconclusive: 20.6 µM [cytotoxic, partial curve]
C=C(CO)C(=O)O[C@H]1C[C@@]23O[C@@H]2CC/C(=C/[C@H]2OC(=O)C(=C)[C@H]12)CO[C@H]3O | inconclusive: 7.18 µM [cytotoxic, partial curve]
